From PubChem BioAssay AID651820 (National Center for Advancing Translational Sciences (NCATS), 2012)
In all, about 340,000 compounds went through this assay and about 12,000 (3.5%) were called active. This list was built around the results that the source calls inconclusive (neither active nor inactive); the mix of calls is not that of the screen. The call rests on the fitted dose curve; in most records, active means well fitted inhibition curve with a large enough effect; inconclusive means small, poorly fitted or top-dose-only effect, or another doubt; inactive means no such curve, though single readings can be large or run the other way. Potencies of inconclusive entries are left out as doubtful fits.

assay: qHTS Assay for Inhibitors of Hepatitis C Virus (HCV); settings: Huh7.5.1 HCVcc-Cre (HCVcc is cell-culture hepatitis C virus) infection, luciferase reporter, 44 h; series mostly up to 41.8 µM
How it was run: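 Seed cells (1,000/well) for 4 h; treat with compound and infect with HCVcc-Cre, moi about 0.5. Incubate 44 h, then detect luciferase activity.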
Potency means the concentration at half of the fitted maximal effect; tags describe the fitted curve by direction and shape.

SMILES	Potency
S=C(Nc1ccc(Cl)cc1)NC1CC2CCC(C1)N2Cc1ccccc1 (stereo unspecified)	inconclusive [inhibitor, single point]
COc1cc(CNCc2ccccn2)ccc1OCc1ccc(Cl)cc1Cl	inconclusive [inhibitor, single point]
Cc1ccc(C(=O)c2no[n+]([O-])c2C(=O)c2ccc(C)cc2)cc1	inconclusive [inhibitor, single point]
COc1ccccc1N(C)S(=O)(=O)c1ccc(C(=O)NCC2CCCCC2)cc1	inconclusive [inhibitor, single point]
COc1cc(C(=O)O/N=C(\N)Cc2ccc([N+](=O)[O-])cc2)cc(OC)c1OC	inconclusive [inhibitor, partial curve]
Cc1c(Cl)cccc1NC(=O)Cn1c(CCC(=O)O)ccc1-c1ccccc1	inactive
c1ccc(Cn2c(SCc3nc4ccccc4s3)nnc2-c2ccco2)cc1	inconclusive [inhibitor, partial curve]
Cc1ccc(NC2=C/C(=N/S(=O)(=O)c3cccs3)c3ccccc3C2=O)cc1	inconclusive [inhibitor, full curve]
Cc1csc(NC(=S)Nc2cccc(Cl)c2)n1	active: 12.6 µM
O=C(OCC12CC3CC(CC(C3)C1)C2)c1ccc(NCc2cc(O)ccc2O)cc1	active: 1.58 µM
COc1ccc(C(=O)Nc2ccc(Br)cc2F)cc1S(=O)(=O)N1CCCC1	inconclusive [inhibitor, single point]
Clc1ccc(CSc2snnc2-c2ccccc2)cc1	inactive
O=C(CCCc1cccs1)Nc1nc(-c2ccc(F)cc2)cs1	inconclusive [inhibitor, single point]
COc1ccccc1C(=O)OCC(=O)Nc1ccccc1OC(F)F	inactive
CCOC(=O)CSCC(=O)N1N=C(c2cccs2)CC1c1ccc(F)cc1 (stereo unspecified)	inactive
CC(C)(C)C(=O)/C(=C/c1ccncc1)n1cncn1	active: 2.24 µM
Cc1cc(C)c2nc(SC(C)C#N)cc(C)c2c1 (stereo unspecified)	active: 10 µM
O=C(Nc1ccccc1F)c1ccc(S(=O)(=O)NCC2CCCO2)cc1 (stereo unspecified)	inconclusive [inhibitor, single point]
CC(C)(Cl)C1Cc2cc3ccc(=O)oc3cc2O1 (stereo unspecified)	inactive
COc1cc2c(cc1OC)/C(=C/C(=O)c1ccc(F)cc1)NCC2	inconclusive [inhibitor, single point]
COc1ccc(N(C(=O)c2cnccn2)C(C(=O)NCc2ccccc2)c2ccc(O)cc2)cc1 (stereo unspecified)	inactive
CCN1CCN(c2nc(-c3ccccc3)c3ccccc3n2)CC1	inconclusive [inhibitor, single point]
O=C(NC1CCCCC1)N1CCN(c2ccc(Cl)cc2)CC1	inconclusive [inhibitor, partial curve]
Cc1c(C)n(Cc2ccccc2)c2ncnc(Cl)c12	inconclusive [inhibitor, partial curve]
CN(CC(=O)Nc1ccccc1Br)C(=O)CN1CCN(Cc2cccc(Cl)c2)CC1	inconclusive [inhibitor, single point]
Cc1cc(-c2ccc(NS(=O)(=O)c3ccccc3)c(C)c2)ccc1NS(=O)(=O)c1ccccc1	active: 8.91 µM

SMILES	Potency
COc1ccc(S(=O)(=O)N(Cc2cccs2)C2CCCC2)cc1	inconclusive [inhibitor, single point]
CCn1cc(C(=O)N2CCc3ccccc32)c(=O)c2cc(S(=O)(=O)N(C)C3CCCCC3)ccc21	inconclusive [inhibitor, full curve]
Cn1c(=O)c2c(nc(NCCOc3ccc(C(C)(C)C)cc3)n2C)n(C)c1=O	inconclusive [inhibitor, partial curve]
CCOc1cc(/C=N/OC(C)=O)ccc1OCc1ccccc1	inconclusive [inhibitor, single point]
Cc1ccc(S(=O)(=O)N(C)C)cc1NC(=O)C(C)OC(=O)/C=C/c1cccs1 (stereo unspecified)	inactive
Cc1c(Cl)cccc1NC(=S)N(Cc1cccnc1)Cc1ccccc1Cl	inactive
Cc1ccc(C)c(NC(=O)CCN2C(=O)C3CC=CCC3C2=O)c1 (stereo unspecified)	inconclusive [inhibitor, full curve]
O=c1[nH]c(CN2CCOCC2)nc2cc(Cl)ccc12	inactive
CC(=O)c1c(O)cc(C)n(Cc2ccccc2)c1=O	inconclusive [inhibitor, partial curve]
Cc1ccc(S(=O)(=O)N2CCC(=O)N(C(COCc3ccccc3)Cc3ccccc3)CC2)cc1 (stereo unspecified)	inactive
Cc1ccc(C(NC(=O)C(C)C)c2cc([N+](=O)[O-])c3cccnc3c2O)cc1 (stereo unspecified)	active: 12.6 µM
Cc1ccsc1/C=N/NC(=O)C(O)c1ccccc1 (stereo unspecified)	inactive
CC(=O)NC(CCS(C)(=O)=O)C(=O)Nc1ccc(Oc2ccccc2)cc1 (stereo unspecified)	inactive
CC(C)Cc1ccc(CN2CCCC(NC(=O)CCCN3CCCC3=O)C2)cc1 (stereo unspecified)	inactive
CC(C)CCNC(=O)CCCOc1ccccc1	inactive
O=C(N/N=C/c1sc(N2CCOCC2)nc1-c1ccccc1)c1cccc(S(=O)(=O)N2CCCC2)c1	active: 3.55 µM
CCN(C(=O)CSc1nnc(-c2cccs2)o1)C1CCS(=O)(=O)C1 (stereo unspecified)	inactive
COc1ccc(NC(=O)c2ccc(NCCCN3CCOCC3)c([N+](=O)[O-])c2)cc1	active: 12.6 µM
O=C(Nc1nc(-c2cccs2)cs1)C1=COCCO1	inconclusive [inhibitor, partial curve]
N/C(=N\OC(=O)c1ccc2c(c1)OCO2)c1cccc([N+](=O)[O-])c1	inactive
Cc1c(C(=O)OCC(=O)c2ccc3c(c2)OCCO3)oc2ccccc12	inconclusive [inhibitor, single point]
Cc1ccc(C(=O)CN2/C(=C(\O)c3ccccc3)C(=O)c3ccccc3S2(=O)=O)c(C)c1	inconclusive [inhibitor, single point]
CCOc1cc(C(C(=O)NCC2CCCO2)N(C(=O)Cn2nnc3ccccc32)c2ccc(NC(C)=O)cc2)ccc1O (stereo unspecified)	inconclusive [inhibitor, single point]
Cc1ccc(/C=C\c2nccc3c2[nH]c2ccccc23)cc1	inconclusive [inhibitor, single point]
CC1(C)CC(=O)c2cc(NC(=O)c3ccc(F)cc3)c(=O)oc2C1	inactive
COc1ccc(-c2cc(C)no2)cc1S(=O)(=O)N(C)c1cccc(C)c1	inconclusive [inhibitor, single point]

SMILES	Potency
Cc1cc(C)nc(NC(=O)c2c(F)c(F)c(F)c(C(=O)Nc3cc(C)cc(C)n3)c2F)c1	inactive
Cn1c2ccccc2c(=O)c2ccc(F)cc21	inactive
O=C(NNC(=O)c1ccccc1F)c1cccc(Cl)c1	inconclusive [inhibitor, partial curve]
CCC1SC2=NC(C)=C(C(=O)OCC(C)C)C(/C=C/c3ccccc3OC)N2C1=O (stereo unspecified)	inactive
C=CCNC(=S)N1CCN(c2ncc(C(F)(F)F)cc2Cl)CC1	inconclusive [inhibitor, partial curve]
Cn1c(=O)c2c(ncn2CC(O)CNc2cccc(Cl)c2)n(C)c1=O (stereo unspecified)	inconclusive [inhibitor, single point]
O=C1S/C(=C\c2ccc(N3CCOCC3)o2)C(=O)N1Cc1ccc(F)cc1	inconclusive [inhibitor, partial curve]
CCCCC(=O)NS(=O)(=O)c1ccc(N=NN(CC)CC)cc1	inactive
COc1ccc(S(=O)(=O)NCC2CCCN(Cc3ccc(OC)cc3F)C2)cc1 (stereo unspecified)	inconclusive [inhibitor, single point]
Cc1cc(NC(=O)Nc2cccc(Cl)c2)n(-c2ccccc2)n1	inconclusive [inhibitor, full curve]
COCCOc1ccc(C(F)(F)F)cc1NC(=O)CN1C(=O)NC(C)(c2ccc3c(c2)OCO3)C1=O (stereo unspecified)	inconclusive [inhibitor, single point]
O=C(c1ccc2c(c1)OCO2)N1CCN(c2ccc(Cl)cc2)CC1	inactive
Cc1ccc(Cc2cc(-c3ccc(C)cc3)n[nH]c2=O)cc1	inconclusive [inhibitor, single point]
CN(C)S(=O)(=O)c1cccc(C(=O)Nc2ccc3c(c2)CCC3)c1	inconclusive [inhibitor, single point]
CCSC1=NC(=O)/C(=C2/C=Cc3ccccc3N2CC)S1	inconclusive [inhibitor, single point]
COc1ccccc1N(Cc1cc(=O)[nH]c2ccccc12)C(=O)c1ccc([N+](=O)[O-])cc1	inactive
Cc1nc(C)c(NC(=O)N2CCc3ccccc32)cc1NC(=O)N1CCc2ccccc21	inactive
CC(=O)NS(=O)(=O)c1ccc(NC(=O)c2cccc(OCc3c(C)noc3C)c2)cc1	inactive
CC(=O)NS(=O)(=O)c1ccc2c(c1)C(=O)c1cc(S(=O)(=O)NC(C)=O)ccc1-2	inactive
C=CCNC(=O)c1oc2ccc(S(=O)(=O)N(CC)CC)cc2c1C	inactive
CC(C)COC(=O)COc1cc(Cl)c(Cl)cc1Cl	inactive
CN(C)S(=O)(=O)N1CCN(C(=O)N2CCCCC2)CC1	inactive
CC(C)(C)OC(=O)NCCCCCO	inconclusive [inhibitor, single point]
COc1cccc(-c2cc3nc4c(c(NCC(C)(C)CN(C)C)n3n2)CCCC4)c1	inconclusive [inhibitor, partial curve, poor fit]
